Source: PubChem BioAssay AID624296 (National Center for Advancing Translational Sciences (NCATS), 2012)
In all, about 350,000 compounds went through this assay and about 9,900 (2.8%) were called active. The inconclusive results got no clear call from the source; some entries with a clear call stand among them for comparison. Calls come from the whole dose curve; as a rule, active = well fitted activation curve with a large enough effect; inconclusive = small, poorly fitted or top-dose-only effect; inactive = no such curve, though single readings can be large or run the other way. Potencies of inconclusive entries are left out as doubtful fits.

Test: A quantitative high throughput screen for small molecules that induce DNA re-replication in MCF 10a normal breast cells. For activity, positive = re-replication: % of control where 0% means no effect. Note: nearly all actives have a fitted effect of over 50% in size.
Conditions: MCF 10A DNA re-replication, Hoechst nuclear intensity, 48 h; activity, positive = re-replication: at 46.1 µM (top of the series)
Potency is the fitted concentration of half-maximal effect; tags give direction and shape of the fitted curve.

Row | Structure (SMILES) | activity, positive = re-replication | Potency
1 | O=C1c2ccccc2-c2nccnc21 | inactive: -2.46% | 
2 | O=c1oc2cc(OCc3c(F)cccc3Cl)ccc2cc1-c1ccccn1 |  | inconclusive [activator, full curve, poor fit]
3 | COc1ccccc1NC(=O)CN1CCC(C(=O)c2ccc(F)cc2)CC1 |  | inconclusive [activator, partial curve, poor fit]
4 | CC(C)c1nnc(NC(=O)c2nc(S(=O)(=O)Cc3ccc(F)cc3)ncc2Cl)s1 |  | active: 0.731 µM
5 | CC(Sc1ccc2ccccc2c1)C(=O)NC(N)=O (centres undefined) | inactive: -0.575% | 
6 | Cc1c(C(=O)NC2CCCCC2)oc2ccccc12 |  | inconclusive [activator, partial curve, poor fit]
7 | O=C(NCCc1ccccn1)c1cc(-c2ccccc2Cl)nc2ccccc12 |  | inconclusive [activator, partial curve, poor fit]
8 | CC1=CC(=O)C=C(C)C1=NOS(=O)(=O)c1ccccc1 |  | active: 7.31 µM
9 | O=[N+]([O-])c1cccc(Nc2c3ccccc3nc3ccccc23)c1 |  | inconclusive [activator, single point]
10 | CCCCCCCCCCn1c2c(c(=N)c3c1CCC3)CCC2 |  | inconclusive [activator, single point]
11 | COc1cc(-c2cc(C(=O)Nc3c(Cl)cc(Cl)cc3Cl)c3ccccc3n2)cc(OC)c1OC |  | inconclusive [activator, partial curve]
12 | CN1C/C(=C\c2ccc(N3CCOCC3)cc2)C(=O)/C(=C/c2ccc(N3CCOCC3)cc2)C1 |  | active: 18.4 µM
13 | Cc1ccnc(NC(=O)c2ccc(S(=O)(=O)NCc3ccco3)cc2)c1 |  | inconclusive [activator, full curve, poor fit]
14 | Cc1ccc(Cl)cc1NC(=O)C[n+]1ccc(Cc2ccc([N+](=O)[O-])cc2)cc1 |  | inconclusive [activator, partial curve, poor fit]
15 | CCCCCCC(=O)N(O)C1CC(=O)N(c2ccc(Cl)cc2)C1=O (centres undefined) |  | inconclusive [activator, single point]
16 | CC1(C)Cc2c(cnn2-c2ccccc2)C(NC(=O)c2ccoc2)C1 (centres undefined) | inactive: 6.14% | 
17 | CCOc1ccccc1NC(=O)CN(c1ccc(OC)cc1)S(=O)(=O)c1c(C)noc1C |  | active: 6.51 µM
18 | OCCC#Cc1ccc(CN2CCN(C3CCCCC3)C(CCO)C2)cc1 (centres undefined) | inactive: 1.48% | 
19 | O=C(NCCc1csc(-c2cccnc2)n1)c1ccc(Cl)cc1 |  | active: 11.6 µM
20 | CCN(CC)CCN(Cc1cc2cc3c(cc2[nH]c1=O)OCO3)C(=S)NCC(C)C |  | inconclusive [activator, partial curve, poor fit]
21 | CCOC(=O)C1=C(N)Oc2ccc3ccccc3c2C1c1ccc(O)c(OC)c1 (centres undefined) |  | inconclusive [activator, single point]
22 | O=C(O)CCc1ccc(-c2ccc(Br)cc2)o1 |  | inconclusive [activator, single point]

Row | Structure (SMILES) | activity, positive = re-replication | Potency
23 | Cc1ccc(NC(=S)NCCN(C2CCCCC2)C2CCCC2)cc1C |  | inconclusive [activator, partial curve, poor fit]
24 | Cc1cc(N2CCN(C)CC2)nc2ccc(NC(=O)CCC(=O)NCCC(C)C)cc12 |  | inconclusive [activator, single point]
25 | COc1ccc(C)cc1NC(=O)c1cc2c(s1)CCC2 | inactive: 14.3% | 
26 | CCN(CC)S(=O)(=O)c1cc(NC(=O)C(C)Nc2ccccc2N2CCOCC2)ccc1C (centres undefined) |  | inconclusive [activator, full curve, poor fit]
27 | Cc1cc(Cl)c2oc(C(=O)N(C)Cc3cc(C)[nH]n3)c(C)c2c1 | inactive: 24% | 
28 | CC1CCC2(CC1)NC(=O)N(CC(=O)NCCc1ccc(F)cc1)C2=O (centres undefined) | inactive: 13% | 
29 | Cc1ccc2nc(-c3ccccc3)c(CN3CCN(c4ccccc4F)CC3)n2c1 |  | inconclusive [activator, single point]
30 | CN(C)Cc1ccccc1Sc1cccc2ccccc12 |  | active: 13 µM
31 | O=c1[nH][nH]c(C(F)(F)F)c1C=NCc1ccccc1Cl |  | inconclusive [activator, partial curve, poor fit]
32 | COCCN1C(=O)N[C@@H](c2ccccc2)[C@H](C(C)=O)[C@H]1C |  | inconclusive [activator, partial curve, poor fit]
33 | CCCCN(CC)C(=O)c1cc2cc3ccc(Cl)cc3nc2o1 | inactive: -1.97% | 
34 | CC(C)Oc1ccc(S(=O)(=O)N2CCOCC2)cc1NC(=O)Cc1cccs1 | inactive: -15.4% | 
35 | CCOc1ccccc1-c1nc(-c2cc3ccc(C)cc3[nH]c2=O)no1 |  | inconclusive [activator, partial curve, poor fit]
36 | COc1ccc(C2=NOC(C(=O)NCc3cccnc3)C2)cc1OC (centres undefined) |  | inconclusive [activator, partial curve, poor fit]
37 | COc1ccc(OCC(=O)Nc2c(C(=O)N3CCN(C)CC3)oc3ccccc23)cc1 |  | inconclusive [activator, partial curve, poor fit]
38 | COc1ccc(CP(=O)(c2ccccc2)c2ccccc2)cc1 |  | inconclusive [activator, single point]
39 | CCN(CC)c1ccc(C2Nc3cccc4cccc(c34)N2)c(O)c1 |  | inconclusive [activator, single point]
40 | Clc1ccc(C2=NNC(=NCc3ccc4c(c3)OCO4)SC2)cc1 |  | inconclusive [activator, single point]
41 | CCc1nnc(NS(=O)(=O)c2ccc(NC(=S)NC(=O)/C=C/c3ccccc3)cc2)s1 | inactive: 3.33% | 
42 | Cc1ccc(C(=O)c2nocc2C(=O)c2cccs2)cc1 |  | inconclusive [activator, single point]
43 | Cn1c(C(=O)N2CCc3ccccc3C2)cc2c(=O)n3ccccc3nc21 |  | inconclusive [activator, single point]
44 | Cc1ccc(-n2nc(C)c3c(C)cc(=O)[nH]c32)cc1 | inactive: 3.96% | 
